Test results published in ChEMBL document CHEMBL1201862, “PubChem BioAssay data set” (2004).
Several values for one entry are separate records, joined by “and”; a condition that tells them apart may be missing. Equal values may be shown once.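 Grown in 96-well plates, cells were treated for 48 hours with each compound at five concentrations. Insufficient inhibition: endpoint recorded as highest concentration tested. GI50 is the concentration that inhibits growth by half.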 Activity calls are given as the source filed them. No stated cut-off is given here; in the data, active = GI50 up to about 1.1 µM and inactive = higher. Numbered stars: 1 amine (or outer) side, 2 acyl side, 3 side chain; on linkers, the order of the positions; unused ones are H or OH. Bridge positions count the residues as written; N and C are the ends. Square brackets hold non-standard residues; d marks the D form. Peptide text beside a SMILES is read from it. I, II: the chains in the order shown. Actinocin(9to1) = Cc1c2oc3c(C)ccc(C(=O)[*:1])c3nc-2c(C(=O)[*:2])c(N)c1=O; NMeV = CN[CH](C(=O)O)C(C)C; Sar = CNCC(=O)O

Each molecule was assayed on NCI-H322M (assay: NCI anticancer screen, dose series, 48 h).

| SMILES | GI50 |
| --- | --- |
| CNC(=S)NNc1ncnc2c1ncn2-c1ccc(C)cc1 | inactive: > 100 µM |
| O=CC12CCCN1CCC2 | inactive: > 100 µM |
| O=C(CCC(=O)Nc1cccc(Cl)c1)CC(=O)c1ccc(F)cc1 | inactive: > 100 µM |
| CCO/N=C\c1ccc2oc(-c3ccccc3)cc(=O)c2c1 | active: 0.287 µM |
| CCOC(=O)C1(C(=O)OCC)CCCN1C(=O)[C@H](CNC(=O)OC(C)(C)C)NC(=O)OCc1ccccc1 | inactive: > 100 µM |
| CC1CNC(NS(=O)(=O)c2cc(C(=O)Nc3ccccc3)c(Cl)cc2S)=NN1 (stereo not given) | inactive: 48.3 µM |
| C=C1CCC[C@@H](C)C(O)[C@@H]2OC(=O)C(=C)[C@@H]2C[C@@H](OC(C)=O)[C@@]2(C)CC[C@@H]1O2 (stereo not given in full) | inactive: 8.07 µM |
| O=C(O)c1ccccc1/C=N/N=C1c2ccccc2-c2ccccc21 | inactive: 25.1 µM |
| CC(C)(C)c1ccc(C(C)(C)C)c(N2C(=O)[C@@H]3[C@@H]4C=C[C@@H](C4)[C@]3(C)C2=O)c1 | inactive: 76.2 µM |
| COC(=O)/C(C#N)=C1\CCc2ccccc21 | inactive: > 100 µM |
| O=S(O)CCCSSCCCCSSCCCS(=O)O | inactive: > 100 µM |
| C/C(=N\NC(=S)N1CCCCCCCCCCCC1)c1ccccn1 | active: 0.31 µM |
| O=C1/C(=C/c2ccc(O)c(O)c2)CCC/C1=C\c1ccc(O)c(O)c1 | inactive: 9.95 µM |
| O=C(O)CCC(NC(=O)c1ccccc1)C(=O)O (stereo not given) | inactive: > 100 µM |
| O=C1c2ccccc2C2C1N2C(=O)C(F)(F)F (stereo not given) | inactive: > 100 µM |
| N#CC1(c2nc3ccccc3o2)C(=O)C(=O)N(C2C3CC4CC(C3)CC2C4)C(=O)C1=O (stereo not given) | inactive: > 100 µM |
| Cc1ccc(C[N+](C)(C)N)cc1C | inactive: > 10 µM |
| CN(C)CC(=O)N1CCc2c([nH]c3ccccc23)C1c1cccnc1 (stereo not given) | inactive: > 100 µM |
| CC[N+]1(C)CCC(O)(/C=C/c2ccc(Cl)c(Cl)c2)C(C(=O)/C=C/c2ccc(Cl)c(Cl)c2)C1 (stereo not given) | inactive: 7.69 µM |
| O=c1[nH]nc(-c2ccccc2)c2[nH]c3c(c12)Cc1ccccc1-3 | active: 0.624 µM |
| Cc1ccc(/N=N/c2c(O)c(C(=O)Nc3ccccc3)cc3ccccc23)c([N+](=O)[O-])c1 | inactive: > 100 µM |
| CO[P@]1(=O)O[C@@H](c2ccccc2)[C@H](O)[C@]1(O)c1ccccc1 | inactive: > 100 µM |

| SMILES | GI50 |
| --- | --- |
| N=c1oc2ccc3ccccc3c2cc1C(N)=O | inactive: 32.5 µM |
| CCCCNc1nc(O)c2[nH]cnc2n1 | inactive: > 100 µM |
| COc1ccc(CC2C(=O)NC(C)C(=O)N(C)C3C(=O)N(C)C(Cc4ccc(O)c(c4)Oc4ccc(cc4)C3O)C(=O)NC(C)C(=O)NC(C)C(=O)N2C)cc1.COc1ccc(CC2C(=O)NC(C)C(=O)N(C)C3Cc4ccc(cc4)Oc4cc(ccc4O)CC(C(=O)NC(C)C(=O)NC(C)C(=O)N2C)N(C)C3=O)cc1 (stereo not given) | active: 0.00524 µM |
| O=C1/C(=C\c2cccc(Oc3ccccc3)c2)S(=O)(=O)C(c2ccccc2)N1c1ccc(Cl)cc1 (stereo not given) | inactive: 36.4 µM |
| C/C(=N\C1CCCCC1)c1ccccc1O | inactive: > 100 µM |
| Cc1ccc(S(=O)(=O)NC(CCC(=O)NNc2ccccc2)C(=O)NNc2ccccc2)cc1 (stereo not given) | inactive: 80.4 µM |
| CN(C)CC1CC/C(=C\c2ccc(O)cc2)C1=O (stereo not given) | inactive: 16.8 µM |
| N#Cc1cc2c(n(C3OC(CO)C(O)C(O)C3O)c1=S)CCC2 (stereo not given) | inactive: > 100 µM |
| N#Cc1nc(CN2C(=O)c3ccccc3C2=O)oc1N | inactive: > 100 µM |
| O=c1c(SSc2coc3cc(F)ccc3c2=O)coc2cc(F)ccc12 | inactive: 28.5 µM |
| Cc1c(C)c(C)c(-n2c(=O)n(C)c(=O)n2C(C)(C)C)c(C)c1C | inactive: > 100 µM |
| CN1CCN(C2CC(=O)c3c(Cl)sc(Cl)c32)CC1 (stereo not given) | inactive: 26.4 µM |
| CC(=O)N/C(=C\c1cccc([N+](=O)[O-])c1)c1nc2ccc3c(c2[nH]1)C(=O)c1ccccc1C3=O | inactive: 26.2 µM |
| CS(=O)(=O)Nc1ccc2c(c1)N(S(C)(=O)=O)CC2COS(C)(=O)=O (stereo not given) | inactive: > 100 µM |
| O=C1c2cc([N+](=O)[O-])cc3cc([N+](=O)[O-])cc(c23)C(=O)N1CCCNCCNCCCN1C(=O)c2cc([N+](=O)[O-])cc3cc([N+](=O)[O-])cc(c23)C1=O | active: 0.233 µM |
| N=C(N)N/N=C/c1c[nH]c2ccccc12 | inactive: > 100 µM |
| C1CN(c2nnc(N3CCC3)nn2)C1 | inactive: > 100 µM |
| CC(C)/C(Cl)=N/OC(NC(=O)Nc1ccc(Cl)c(Cl)c1)(C(F)(F)F)C(F)(F)F | inactive: 16.9 µM |
| CCCCOC(=O)C(NC(C(=O)OCCCC)c1cc(C(C)(C)C)c(O)c(C(C)(C)C)c1)c1cc(C(C)(C)C)c(O)c(C(C)(C)C)c1 (stereo not given) | inactive: > 100 µM |
| CN/N=C(/c1nc2ccc([N+](=O)[O-])cc2nc1O)C(O)c1ccc(C(O)/C(=N\NC)c2nc3ccc([N+](=O)[O-])cc3nc2O)cc1 (stereo not given) | inactive: > 100 µM |
| CC[C@]1(Cc2ccc(OC)c(OC)c2)C=[N+]([O-])O[C@H](OCc2ccccc2)[C@@H]1OC(C)=O | inactive: 40.2 µM |
| CCOC(=O)CN1CCNCCN(CC(=O)OCC)CCNCC1 | inactive: > 100 µM |

| SMILES | GI50 |
| --- | --- |
| CSc1nc(Cl)c2c(n1)Sc1nc3cc4c(cc3n1C2O)OCCO4 (stereo not given) | inactive: 2.99 µM |
| O=[N+]([O-])c1cccc(-c2nc(-c3ccccc3)c(-c3ccccc3)[nH]2)c1 | inactive: > 100 µM |
| COc1cc(COC(=O)N[C@H](C(=O)O)C(C)(C)C)c([N+](=O)[O-])cc1OC | inactive: > 100 µM |
| Cc1ccc(S(=O)(=O)OCCC2CN(C(=O)OCc3ccccc3)C(C)(C)O2)cc1 (stereo not given) | inactive: > 100 µM |
| Cc1cccc(NC(=S)N/N=C(/c2ccccc2)c2ccccn2)c1 | active: 0.14 µM |
| Fc1ccc(C2SCc3nc4ccccc4n32)cc1Cl (stereo not given) | inactive: 36.6 µM |
| CC(=O)/C(C)=N/NC(=O)c1ccccc1O | inactive: > 10 µM |
| Cc1c2oc3c(C)ccc(C(=O)NC4C(=O)NC(Cc5ccccc5)C(=O)N5CCCC5C(=O)N(C)CC(=O)N(C)C(C(C)C)C(=O)OC4C)c3nc-2c(C(=O)NC2C(=O)NC(Cc3ccccc3)C(=O)N3CCCC3C(=O)N(C)CC(=O)N(C)C(C(C)C)C(=O)OC2C)c(N)c1=O (stereo not given) (I: TFP[Sar][NMeV] / II: TFP[Sar][NMeV]; ester I:1-I:C, II:1-II:C; linker I:N-II:N via Actinocin(9to1); configuration not given here) | active: < 0.001 µM |
| O=C(CC(=O)Nc1cccc(Cl)c1)NNCC(=O)Nc1nnc(-c2ccccc2)s1 | inactive: > 100 µM |
| COc1ccc2[nH]cc(CCNC(=O)[C@H](Cc3ccc(O)cc3)NC(=O)[C@@H](NCC(F)(F)F)C(C)C)c2c1 | inactive: > 100 µM |
| Cc1nc(Nc2nc3ccccc3[nH]2)nc(Cl)c1CCCl | inactive: > 100 µM |
| Fc1ccc(C(OCCN2CCN(CCCc3ccccc3)CC2)c2ccc(F)cc2)cc1 | inactive: 8.57 µM |
| CCOC(=O)c1c(-c2ccccc2)nc2c(OC)nccn12 | inactive: > 100 µM |
| O=C(Nc1c(Cl)cc([N+](=O)[O-])cc1Cl)/C(=N\Nc1cccc(Cl)c1)c1c(O)c2ccccc2oc1=O | inactive: > 100 µM |
| O=C(Nc1ccc(Sc2ccc(/N=N/c3c(O)c(S(=O)(=O)O)cc4cc(S(=O)(=O)O)ccc34)cc2)cc1)c1ccc(/N=N/c2c(O)ccc3c(S(=O)(=O)O)cc(S(=O)(=O)O)cc23)cc1 | inactive: 29.7 µM |
| O=C1OC(CC(=O)c2ccc(Cl)cc2)C(Cl)=C1Cl (stereo not given) | inactive: > 100 µM |
| Nc1nc(CCl)nc(Nc2ccccc2)n1 | inactive: 30.1 µM |
| CC(C)(C)OC(=O)c1cccnc1/C=N/O | inactive: > 100 µM |
| CC12CC(Br)(Br)C(=O)C3C1CCCC32 | inactive: 15.6 µM |
| CCN(CC)CCC(=O)c1ccccc1 | inactive: > 100 µM |
| CCOC(=O)CNC(SC)=C(C#N)C#N | inactive: > 100 µM |
| O=c1oc2nc(-c3ccccc3)cc(C(F)(F)F)c2n1Cc1ccccc1 | inactive: 4.19 µM |

| SMILES | GI50 |
| --- | --- |
| Cc1ccc(-n2nc(C(OC3OC(CO)C(O)C(O)C3O)C(O)CO)c3nc4cc(C)c(C)cc4nc32)cc1 (stereo not given) | inactive: > 100 µM |
| COc1cc(C(O)(CC#N)c2cc3c(cc2Br)OCO3)cc(OC)c1OC (stereo not given) | inactive: 49.8 µM |
| CCCC(=O)NC(Nc1cc(C)ccn1)(C(=O)OCC)C(F)(F)F (stereo not given) | inactive: > 100 µM |
| CC1=NC(=Cc2cc(Br)cc(Br)c2)C(=O)N1n1c(-c2ccccc2)nc2ccccc2c1=O | inactive: > 100 µM |
| Cc1nc(-c2ccccc2)cc2c1c(=O)oc1ccccc12 | inactive: > 100 µM |
| CC(=O)O[C@H]1CCC(C)=CCC[C@@]2(C)C(CC[C@@H]2[C@@H](C)/C=C/C(C)C)c2ccc(cc2C(=O)O)C1 (stereo not given in full) | inactive: 5.24 µM |
| CCOC(=O)C(=O)C(C#N)c1ccc(Cl)cc1 (stereo not given) | inactive: > 100 µM |
| COC(=O)[C@H](Cc1ccccc1)NC(=O)[C@H](Cc1ccccc1)NC(=O)CN1C(=O)[C@@H]2C3C=CC(C3)[C@@H]2C1=O | inactive: 17.1 µM and inactive: 17.2 µM |
| O=C(CC(=O)n1nc(-c2ccccc2)c(/N=N/c2ccc(Cl)cc2)c1-c1ccccc1)Nc1ccc(Cl)cc1 | inactive: > 100 µM |
| CC[C@]1(O)C[C@H]2CN(CCc3c([nH]c4ccccc34)[C@@](C(=O)OC)(c3cc4c(cc3OC)N(C)[C@H]3[C@@](O)(C(=O)OC)[C@H](OC(C)=O)[C@]5(CC)C=CCN6CC[C@]43[C@@H]65)C2)C1 | active: 0.00104 µM |
| Cc1ccc(-n2cc(-c3ccc(Cl)cc3)c3c(=N)n(N)cnc32)cc1 | inactive: 14.4 µM |
| O=C(/C=C/c1c(O)nc2ccccc2c1O)CC(=O)C(=O)Nc1cccc(O)c1 | inactive: > 100 µM |
| CC1=NCC[N+]1(CCc1ccccc1)Cc1ccccc1 (stereo not given) | inactive: > 100 µM |
| CC(=O)NC(CCCNC(=O)N(CCCl)N=O)C(=O)NCc1ccccc1 (stereo not given) | inactive: > 100 µM |
| CN(C)N1C(=O)CC2(CCN(CCCC(=O)c3ccc(F)cc3)CC2)C1=O | inactive: > 100 µM |
| Nc1cccc(-c2cc(O)c3cc4c(cc3n2)OCO4)c1 | inactive: > 25.3 µM |
| CN1/C(=N\c2ccccc2)S/C1=N/c1ccccc1 | inactive: 95.5 µM |
| Cc1ccc(/N=C2N=C(Cl)/C(=C\c3ccccc3)N\2)cc1 | inactive: > 100 µM |
| CC(=O)OC1CCC2(C)C3CCC4(C)C(c5ccc(=O)oc5)CC5OC54C3CCC2(O)C1 (stereo not given) | active: 0.838 µM |
